Laboratory results: PubChem BioAssay AID493208 (National Center for Advancing Translational Sciences (NCATS), 2011)
Out of some 44,000 compounds screened, about 340 (0.77%) were called active. Inconclusive results (about 5%) are left out. Calls come from the whole dose curve; as a rule, active = well fitted inhibition curve with a large enough effect; inconclusive = small, poorly fitted or top-dose-only effect; inactive = flat fitted curve, though single readings scatter. The list shows a part of the results.

Assay: Acumen qHTS Assay for Inhibitors of the mTORC1 Signaling Pathway in MEF (Tsc2-/-, p53-/-) Cells: Sytravon;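 note: plate controls were DMSO for no effect and rapamycin for full effect; nearly all actives have a fitted effect of over 50% in size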
Conditions: phospho-rpS6 immunofluorescence/PI, 24 h; series mostly up to 38.3 µM; activity change, negative = inhibition: at the top concentration
Method in brief: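 Tsc2-/-, p53-/- mouse embryonic fibroblasts (empty-vector line) exposed to compound 24 hrs at 37 C, fixed, immunostained for phospho-rpS6 and counterstained with propidium iodide. Acumen laser scanning gives % positive cells from Alexa 488/PI ratio, thresholded using 7.5 nM rapamycin; PI count gives viability.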

Activity change, negative = inhibition, inactive:
COc1cc(Cl)ccc1Nc1ncc(C(=O)N2CCN(c3ccccc3OC)CC2)c2ccccc12 0.783%
O=C(CSc1nc(-c2ccccc2)nc2c1CCCC2)c1ccc(F)cc1 11.2%
CCC(=O)N1c2ccc(S(=O)(=O)NCc3cccc(OC)c3)cc2CC1C (configuration not stated) 5.69%
COc1cc(NC(=O)CCc2c(C)nc3nc(-c4cc(OC)cc(OC)c4)nn3c2C)cc(OC)c1 -7.79%
Cc1nc2ccccc2n1CC(O)COc1ccc(C(=O)O)cc1 (configuration not stated) 3.7%
Cc1ccc(-n2c3nc(=O)n(C)c(=O)c-3cc3c(Cl)cccc32)c(C)c1 1.13%
Cc1ccc(NS(=O)(=O)c2ccc(NC(=O)N3CCCC3)cc2)cc1C 4.35%
CCn1c(C(=O)N2CCC(C(=O)NCCc3ccccc3)CC2)cc2sccc21 1.79%
CCC(Sc1nnc(-c2ccc(OC)cc2)c(-c2ccc(OC)cc2)n1)C(=O)NC1CCCCC1 (configuration not stated) 9.31%
CC1CCCN(S(=O)(=O)c2ccc(NC(=O)c3nc(SC(C)C)ncc3Cl)cc2)C1 (configuration not stated) -4.56%
CCCCN(Cc1ccccc1)C(=O)c1oc(=O)c2ccccc2c1-c1ccc(C)cc1 3.07%
COc1ccccc1/C=C/c1nc(C#N)c(N2CCCCCC2)o1 -20.4%
COc1ccc(-n2nc(C(=O)N3CCN(c4ccccc4OC)CC3)c3c4ccccc4n(C)c3c2=O)cc1 -16.1%
CCOC(=O)c1ccc(NC(=O)C(CC)Sc2nc3ncccc3[nH]2)cc1 (configuration not stated) -5.47%
COc1ccc(N2CC(NC(=O)c3ccc(S(=O)(=O)N4CCCC4)cc3)CC2=O)cc1 (configuration not stated) 0.477%
COc1cccc(N2CC(NC(=O)/C=C\c3ccc4c(c3)OCO4)CC2=O)c1 (configuration not stated) -0.0709%
CCc1ccccc1NC(=O)CN1C(=O)CCc2cc(S(=O)(=O)N3CCCCC3)ccc21 0%
Cc1ccc(CNC(=O)c2ccc(CSCc3ccc(Cl)cc3)o2)cc1 -3.91%
CCCCNS(=O)(=O)c1ccc2nc(NC(=O)c3cccnc3)sc2c1 3.19%
CCOc1ccccc1C(=O)Nc1c(NC)c2ccccc2oc1=O 6.88%
Cc1ccc(-n2ccnc(NCc3ccccc3)c2=O)cc1C -7.76%
O=C(NCc1cccc(F)c1)C1=Cc2cc(Br)ccc2OC1 0.621%
Cn1c(=O)oc2cc(S(=O)(=O)N3CCCC(C(=O)Nc4ccc(Br)cc4F)C3)ccc21 (configuration not stated) -3.94%
O=C(Nc1cc(C(F)(F)F)ccc1Cl)c1cc2nc(-c3ccc4c(c3)OCO4)cc(C(F)(F)F)n2n1 1.68%
COc1ccc(N(CC(=O)NCc2ccc(F)cc2)S(=O)(=O)c2c(C)n[nH]c2C)cc1 0.166%
COc1ccc(OCCCn2c(=O)oc3ccc(C)cc32)cc1 -3.79%
O=C(CSc1nc2c(oc3ccccc32)c(=O)n1Cc1ccco1)Nc1cccc(Cl)c1 -8.08%
Cc1cn(C)c(CC(=O)Nc2cccc(Cl)c2C)c1C(=O)O -2.91%
Cc1cc(C)cc(NC(=O)CN2C(=O)c3ccccc3Sc3ccc(C(=O)N4CCOCC4)cc32)c1 0.0864%
COc1cc2c(cc1NS(=O)(=O)c1cccc(C#N)c1)n(C)c(=O)n2C 11.6%
Cc1ccc(C)c(Cn2nnc(C(=O)NCc3ccc(Cl)cc3Cl)c2N)c1 -13.6%
C=CCc1cccc2cc(C(=O)Nc3cccc(Cl)c3)c(=O)oc12 7.35%
Cc1cccc(C(=O)NCCc2sc(-c3ccccc3)nc2C)c1 1.65%
CCOC(=O)c1sc2ccccc2c1S(=O)(=O)Nc1cccc(C(F)(F)F)c1 -5.71%
Cc1coc2c1c(C)cc1oc(=O)cc(C)c12 4.72%
CC(C)OCCCNC(=O)c1ccc2c(=O)n(CCc3ccccc3)c(=O)[nH]c2c1 -17.2%
Cc1oc(-c2cccc(Cl)c2)nc1CN1CCCC(C(=O)NCc2ccc(F)cc2)C1 (configuration not stated) 3.01%
CCCCN(C)C(=O)C(Cc1ccccc1)NS(=O)(=O)c1ccc2c(c1)c(=O)n(C)c(=O)n2C (configuration not stated) -1.16%
COc1ccc(-c2nnc(SCC(=O)Oc3c(C)cccc3C)o2)cc1OC 8.06%
COC(=O)c1cc(NC(=O)Cn2nc(C)n3cccc3c2=O)cc(C(=O)OC)c1 -6.22%
CCC(C)NC(=O)c1ccc(-n2c(-c3ccccc3)cc3c2CCCC3)cc1 (configuration not stated) 0%
Cc1ccc(-c2c(C(=O)NCc3ccccc3)oc(=O)c3ccccc23)cc1 2.73%
Cc1ccccc1CNC(=O)c1ccc(-c2nc(CS(=O)(=O)c3ccccc3)c(C)o2)cc1 -9.18%
CCOC(=O)C1=C(CS(=O)(=O)c2ccc(Br)cc2)NC(=O)NC1c1ccccc1 (configuration not stated) -15.3%
COc1ccc(C)cc1NC(=O)CN(c1cc(C(F)(F)F)ccc1Cl)S(C)(=O)=O 1.59%
CCc1cccc(C)c1NC(=O)c1cc(C)nc2c1c(C)nn2-c1cccc(Cl)c1C -1.37%
COc1cc(NC(=O)c2cc(Cl)c(OC)c(Cl)c2)ccc1NC(=O)c1cc2ccccc2o1 4.43%
Cc1cc(OC(=O)c2cc(-c3ccc4c(c3)OCCO4)on2)ccc1Cl -1.3%
Cc1ccc(CN2CCCn3nc(C(=O)NCCc4ccc(Cl)cc4)cc3C2=O)cc1 -1.4%
COc1ccccc1CNC(=O)CCn1c(=O)c2ccccc2n(CC(=O)Nc2ccc(C)cc2C)c1=O 1.93%
CN1c2ccccc2-c2nc(SCC(=O)Nc3ccccc3C(F)(F)F)ncc2S1(=O)=O -4.52%
CCc1nn2c(=O)c(S(=O)(=O)Nc3ccc(OC)c(Cl)c3)c(C)nc2s1 1.19%
Cc1ccc(CSc2nc3ccc(NC(=O)C(C)C)cc3s2)cc1 -1.29%
CCN(Cc1ccccc1)C(=O)Cn1c(=O)n(Cc2ccccc2)c(=O)c2c1c1cc(OC)ccc1n2C 0.729%
O=C(NCC(c1cccnc1)N1CCN(Cc2ccccc2)CC1)C(=O)Nc1ccc(Cl)cc1 (configuration not stated) 10.4%
COc1ccc(C(CC(=O)Nc2ccc(C)c(C)c2)N2Cc3ccccc3C2=O)cc1OC (configuration not stated) -2.28%
CC(C)c1ccc(S(=O)(=O)c2nnn3c2nc(NC2CCCC2)c2sccc23)cc1 -0.0942%
Cc1ccc(CSCC(=O)N2CCN(c3ccc(F)cc3)CC2)cc1 0.685%
Cc1ccc2c(=O)cc(CSc3ccccc3)[nH]c2c1C 1.59%
Cc1nc(CC(=O)Nc2cccc(C)c2C)cs1 0.667%
CC(=O)c1cccc(S(=O)(=O)NCCc2csc3nc(-c4ccc(F)cc4)nn23)c1 2.34%
Cc1cccc(N(CC(=O)Nc2ccc(Br)cc2)S(C)(=O)=O)c1C 0.657%
COc1ccc(C(=O)NCc2ccc3c(c2)CCN3C(=O)c2ccncc2)cc1 0.566%
O=S(=O)(c1ccc2ccccc2c1)n1nc(-c2ccco2)nc1NCc1ccc(F)cc1 -2.3%
Cc1cc(NC(=O)CCCn2c(C)c3cnn(-c4ccccc4)c(=O)c3c2C)ccc1Br 1.14%
CCOc1ccccc1NC(=O)CN1C(=O)CC(c2ccco2)Sc2ccccc21 (configuration not stated) -16%
Cc1cc(C)cc(C(=O)N(Cc2nc(-c3ccc(Cl)cc3)no2)C(C)C)c1 -9.76%
COCCNC(=O)C(=O)NCC(c1ccc2c(c1)OCO2)N1CCOCC1 (configuration not stated) 1.67%
CCN(C(=O)CSc1ncc(S(=O)(=O)c2ccc(C)c(Cl)c2)c(=O)[nH]1)c1cccc(C)c1 -6.17%
COC(=O)c1ccc(OCC(O)Cn2cnc3cc(C)c(C)cc32)cc1 (configuration not stated) 0.0223%
Cc1ccc(C(=O)Nc2ccc(-c3nc4ccccc4s3)c(O)c2)c(C)c1 -3.69%
CCCCN(C)CCNC(=O)c1cc(=O)[nH]c2ccc(S(=O)(=O)N3CCCCCC3)cc12 7.61%
Cc1cc(NC(=O)c2ccc(-c3ccc(Cl)cc3)o2)cc(-c2nc3ncccc3o2)c1O -1.4%
Cc1ccc(CNC(=O)c2cnc(N(C)C)nc2)cc1 1.12%
Cc1nc(-n2nc(C)c(Cc3ccccc3Cl)c2C)sc1C(=O)N1CCCCC1C (configuration not stated) -7.82%
COc1ccc(NC(=O)c2oc3ccccc3c2NC(=O)c2cc(=O)c3c(C)cc(C)cc3o2)cc1 2.31%
Cc1ccc(NC(=O)c2ncn(-c3ccccc3)n2)cc1Cl -20.6%
COc1ccc(-c2nc(C(=O)Nc3cccc(C(C)=O)c3)nn2-c2ccc(Cl)cc2)cc1 0.929%
Cc1ccc(NC(=O)CS(=O)(=O)c2nc(-c3ccc(C)cc3)cn2-c2ccc(C)cc2)cc1 -17.9%
CCOc1ccccc1NC(=O)CC1C(=O)NCCN1C(=O)c1ccc(F)cc1 (configuration not stated) -12.6%
COc1ccc(OC)c(Nc2nc3ccccc3n3c(C)nnc23)c1 1.66%
O=C(Nc1cc(-c2nc3cc(Cl)ccc3o2)ccc1Cl)c1cccs1 -3.7%
C#CC(C)(CC)NC(=O)Cn1nnc(-c2ccc(OCc3ccccc3F)cc2)n1 (configuration not stated) -10.6%
COc1ccc(COC(=O)c2[nH]c3c(c2C)C(=O)CC(c2ccc(OC)c(OC)c2)C3)cc1 (configuration not stated) -17.3%
COc1ccccc1-c1c(C)nn2c(N3CCN(c4cccc(Cl)c4)CC3)cc(C)nc12 -0.826%
Cc1c(NS(=O)(=O)c2cccc(C(=O)O)c2)c(=O)n(-c2ccccc2)n1C -1.65%
COc1ccc(OC)c(NC(=O)c2cc3c(s2)-c2ccccc2SC3)c1 -4%
CCC(=O)N1c2ccccc2CC1C(=O)NCc1ccccc1C (configuration not stated) 0%
O=C(CSc1nnc(CNC(=O)c2c(F)cccc2Cl)o1)Nc1ccccc1F -3.05%
Cc1ccc(-n2ncc(C(=O)NC3CCCC3)c2C2CCN(C(=O)OC(C)(C)C)CC2)c(C)c1 6.72%
CS(=O)(=O)c1ncc(N(Cc2ccco2)Cc2ccco2)c(C(=O)Nc2ccccc2Br)n1 -0.144%
CC1=C(C(=O)OCc2ccc(C)cc2)C(c2c(Cl)cccc2Cl)CC(=O)N1 (configuration not stated) -9.63%
Cc1ccc(C)c(NS(=O)(=O)c2ccc3c4c(cccc24)C(=O)N3)c1 -10.8%
COc1cccc(Cn2nnc3c(=O)[nH]c(C4CCCN(C(=O)c5ccc(C)cc5)C4)nc32)c1 (configuration not stated) -0.758%
CNc1nc(Oc2ccc(=O)n(C)n2)nc(N2CCOCC2)n1 3.65%
Cn1c(SCC(=O)N2CCCc3ccccc32)ncc(C(=O)Nc2ccc(Cl)cc2)c1=O -4.9%
COc1cccc(CN(Cc2ccco2)c2cnc(S(C)(=O)=O)nc2C(=O)Nc2cccc(Cl)c2C)c1 2.73%
